# Reference: PubChem BioAssay (NCATS)
# Values joined by “and” are separate entries in the source; they are usually repeats but may differ in a detail not shown here. Equal entries are not always repeated. This is one part of the list. Further columns of the screen follow, without active or inactive calls. Most of these compounds were active or inconclusive in the main read-out, so they are no random draw. Words in brackets tell the shape of the fitted curve; partial curves, single points and poor fits give uncertain potencies.
# Assay: qHTS Assay for Lipid Storage Modulators (AID 1519)
# Settings: Drosophila S3 cells, BODIPY lipid droplet/cell ratio, laser cytometry; measured here: lipid (BODIPY) channel AC50; cells loaded with oleic acid
# Method in brief: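 Cells seeded at 5,000 per well were treated with compounds over a concentration series and loaded with oleic acid (400 uM, as added). Lipid droplet fluorescence (488 nm excitation, 500-530 nm channel) was read by laser-scanning cytometry and normalized to 20 uM Triacsin C.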
# Tags give direction and shape of the fitted curve.
row,SMILES,AC50
1,NC[C@H](CP(=O)(O)O)c1ccc(Cl)cc1,"15.8 µM [rising, full curve, poor fit]"
2,CN1C[C@@H](C(=O)N[C@@]2(C)O[C@]3(O)C4CCCN4C(=O)[C@@H](Cc4ccccc4)N3C2=O)C=C2c3cccc4[nH]cc(c34)C[C@@H]21 (some centres undefined),"31.6 µM [rising, partial curve, poor fit]"
3,c1ccc(CN2CCC3(CCc4ccccc43)CC2)cc1,"28.2 µM [rising, partial curve, poor fit]"
4,C[C@H](N)Cc1cnc[nH]1,"35.5 µM [rising, partial curve, poor fit]"
5,COc1ccc(CC2c3cc(OC)c(OC)cc3CCN2C)cc1OC (centres undefined),"15.8 µM [rising, partial curve]"
6,COc1ccc(NC(=O)N2CC3(CCN(C(=O)Oc4ccccc4)CC3)C2)cc1,"0.2 µM [rising, full curve, poor fit]"
7,C=C(C)CN1CC[C@@]23c4c5ccc(O)c4O[C@H]2c2[nH]c4ccccc4c2C[C@]3(O)[C@@H]1C5,"20 µM [rising, single point]"
8,CN1CCN(C(=O)O[C@@H]2c3nccnc3C(=O)N2c2ccc(Cl)cn2)CC1,"15.8 µM [rising, single point]"
9,CN(C)C(=O)Oc1cc(OC(=O)N(C)C)cc(C(O)CNC(C)(C)C)c1 (centres undefined),"39.8 µM [rising, single point]"
10,O=C1Nc2cc(Cl)c(Cl)cc2N2CCNC[C@H]12,"25.1 µM [rising, partial curve, poor fit]"
11,CS(=O)c1ccc(-c2nc(-c3ccc(F)cc3)c(-c3ccncc3)[nH]2)cc1 (centres undefined),"7.08 µM [rising, partial curve] and 14.1 µM [rising, partial curve]"
12,CC(C)=CCCC1(C)C=Cc2c(O)c3c(c(CC=C(C)C)c2O1)OC12C(=CC4CC1C(C)(C)OC2(C/C=C(/C)C(=O)O)C4=O)C3=O (centres undefined),"7.08 µM [falling, partial curve]"
13,COc1cc2c(c(OC)c1OC)-c1ccc(OC)c(=O)cc1[C@H](NC(C)=O)CC2,"0.708 µM [rising, full curve, poor fit]"
14,CCCN1CCC[C@H](c2cccc(O)c2)C1,"35.5 µM [falling, partial curve, poor fit]"
